# Test results reported in PubChem BioAssay AID2147 (National Center for Advancing Translational Sciences (NCATS), 2009).
# Several values for one entry are separate records, joined by “and”; a condition that tells them apart may be missing. Equal entries are not always repeated. About 3,600 (1.6%) of roughly 230,000 compounds were called active. This list was built around the results that the source calls inconclusive (neither active nor inactive); the mix of calls is not that of the screen. Calls come from the whole dose curve; as a rule, active = well fitted inhibition curve with a large enough effect (not every such curve was filed as active); inconclusive = small, poorly fitted or top-dose-only effect, or another doubt; inactive = no such curve, though single readings can be large or run the other way. A potency beside an inconclusive call is a rough fit, not a confirmed value.
# Target: Lysine-specific demethylase 4E (Homo sapiens) (UniProt B2RXH2)
# Chain of UniProt B2RXH2 (B2RXH2 whole entry, looked up, the tested form may be a part): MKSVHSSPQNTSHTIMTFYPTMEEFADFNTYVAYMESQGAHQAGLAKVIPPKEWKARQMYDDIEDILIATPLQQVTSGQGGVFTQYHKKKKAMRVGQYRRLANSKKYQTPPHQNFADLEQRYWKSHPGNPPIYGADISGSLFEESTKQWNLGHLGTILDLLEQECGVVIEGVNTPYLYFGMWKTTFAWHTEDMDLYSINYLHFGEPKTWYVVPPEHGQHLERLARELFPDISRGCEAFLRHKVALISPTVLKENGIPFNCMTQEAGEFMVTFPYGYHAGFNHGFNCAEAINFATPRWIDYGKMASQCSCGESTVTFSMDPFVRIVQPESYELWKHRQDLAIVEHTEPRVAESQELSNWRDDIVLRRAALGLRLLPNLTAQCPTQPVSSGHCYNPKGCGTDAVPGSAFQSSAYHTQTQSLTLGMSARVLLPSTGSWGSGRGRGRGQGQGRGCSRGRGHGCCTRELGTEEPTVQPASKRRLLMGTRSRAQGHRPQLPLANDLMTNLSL
# Test: qHTS Assay for Inhibitors of Human Jumonji Domain Containing 2E (JMJD2E)
# Conditions: JMJD2E catalytic domain, FDH-coupled NADH fluorescence (FDH is formaldehyde dehydrogenase); series mostly up to 57.1 µM
# Note: nearly all actives have a fitted effect of over 50% in size.
# Potency is the fitted concentration of half-maximal effect; tags give direction and shape of the fitted curve.
row,SMILES,Potency
1,CCn1c(CCC(=O)Nc2nc3c(s2)CCCC3)nc2cc(S(=O)(=O)N(C)C)ccc21,inactive
2,CCN(CC)CCn1c(=S)[nH]c2cc(C(=O)N3CC=C(c4ccccc4)CC3)ccc2c1=O,"inconclusive: 31.6 µM [inhibitor, single point]"
3,C(=C\c1ccccc1)/C=N/N1CCN(Cc2ccccc2)CC1,inactive
4,Cc1cc(-c2ccc(N=Nc3ccc4c(S(=O)(=O)O)cc(S(=O)(=O)O)c(N)c4c3O)c(C)c2)ccc1N=Nc1ccc2c(S(=O)(=O)O)cc(S(=O)(=O)O)c(N)c2c1O,"inconclusive: 1 µM [inhibitor, full curve]"
5,CCCNc1nc(-c2ccccc2)c(C(=O)OCC)cc1C#N,"inconclusive: 28.2 µM [inhibitor, partial curve]"
6,O=C(CSc1nc2cc(Cl)ccc2s1)N1CCCc2ccccc21,inactive
7,O=C(Oc1ccc2c(=O)c(Oc3ccc4ccccc4c3)coc2c1)c1cccnc1,"inconclusive: 31.6 µM [inhibitor, partial curve]"
8,c1ccc2[nH]c3cc4ncnc4cc3nc2c1,"inconclusive: 31.6 µM [inhibitor, single point]"
9,CCOn1c(=O)c[n+]([O-])c2ccccc21,"inconclusive: 39.8 µM [inhibitor, single point]"
10,COC(=O)c1ccc(-n2nnnc2SCC(=O)Nc2ccccc2C(=O)OC)cc1,"inconclusive: 39.8 µM [inhibitor, single point]"
11,Cc1ccc(-n2c(SCCN)nnc2-c2cccc(C)c2)cc1,"inconclusive: 28.2 µM [inhibitor, single point]"
12,C#CCN(C(=O)CC1C(=O)NCCN1C/C=C/c1ccccc1)C1CCCCC1 (stereo not given),"inconclusive: 39.8 µM [inhibitor, single point]"
13,COc1ccccc1N1CCN(CC(=O)Nc2ccc(-n3cnnn3)cc2)CC1,"inconclusive: 39.8 µM [inhibitor, single point]"
14,CC(C)c1ccc(NC(=O)c2cccnc2)cc1,inactive
15,CC(=O)NCCNc1ncnc2ccc(-c3ccc(C(=O)N(C)C)cc3)cc12,"inconclusive: 31.6 µM [inhibitor, partial curve]"
16,COc1ccccc1-c1oc2ccccc2c(=O)c1OC,"inconclusive: 25.1 µM [inhibitor, partial curve]"
17,Cc1ccc(C)c(-n2c(-c3ccc4c(c3)OCO4)n[nH]c2=S)c1,"inconclusive: 22.4 µM [inhibitor, partial curve]"
18,O=C(CC(c1ccccc1)c1ccccc1O)N1CCCC1 (stereo not given),inactive
19,COc1ccc(/C=C2\SC(=S)N(CCCC(=O)Nc3ccc(O)cc3)C2=O)cc1,inactive
20,CCOc1ccc(-c2csc(NC(=O)CSC3=NC(=O)CN3C(C)=O)n2)c2ccccc12,"inconclusive: 39.8 µM [inhibitor, single point]"
21,Clc1nc2nc3n(c2nc1Cl)CCC3,"inconclusive: 25.1 µM [inhibitor, single point]"
22,CCOC(=O)c1sc2nc(C(C)C)c3c(c2c1N)CC(C)(C)OC3,"inconclusive: 3.55 µM [inhibitor, partial curve]"
23,COc1ccc(/C=C/C(=O)O)cc1S(=O)(=O)NCC1CCCO1 (stereo not given),inactive
24,COc1ccccc1/C=C/C=N/n1c(-c2ccc(Cl)cc2)n[nH]c1=S,"inconclusive: 39.8 µM [inhibitor, single point]"

row,SMILES,Potency
1,O=C(CSc1n[nH]c(-c2ccccc2)n1)NC(=O)NCc1ccco1,inactive
2,CCOC(=O)c1ccc(NC(=O)CSc2nnc(-c3cccs3)n2C)cc1,"inconclusive: 39.8 µM [inhibitor, single point]"
3,Clc1ccc(Nc2ncnc3ccc(Br)cc23)cc1,"inconclusive: 35.5 µM [inhibitor, partial curve]"
4,O=C(Nc1ccccc1N1CCOCC1)c1ccc2nc[nH]c2c1,inactive
5,COC(=O)c1cc(NC(=O)CSc2nc(C)cc(=O)[nH]2)cc(C(=O)OC)c1,inactive
6,CCOC(=O)C1=C(O)/C(=C\c2cccc(OC)c2)N=C1C,inactive
7,CCN(CC)c1ccc(NC(=S)Nc2ccc(F)cc2)cc1,active: 8.91 µM
8,CCOc1cc(/C=C2\C(=O)N(c3ccc(C(N)=O)cc3)N=C2C)ccc1OC(=O)c1cccs1,"inconclusive: 8.91 µM [inhibitor, partial curve]"
9,COc1cccc(OC)c1C(=O)Nc1nc(COc2ccccc2)cs1,"inconclusive: 35.5 µM [inhibitor, single point]"
10,CCOC(=S)SCc1cn2ccccc2n1,inactive
11,COC(=O)C(C)Oc1ccc(Oc2nc(Cl)ccc2Cl)cc1 (stereo not given),inactive
12,CCCOc1ccc2cc(-c3ccccn3)c(=O)oc2c1,"inconclusive: 28.2 µM [inhibitor, partial curve]"
13,O=C(Nc1nc(-c2ccc3c(c2)OCCO3)cs1)c1ccc(S(=O)(=O)N2CCCCC2)cc1,"inconclusive: 25.1 µM [inhibitor, single point]"
14,O=C1CCC(=O)N(O)CCCCCNC(=O)CCC(=O)N(O)CCCCNC(=O)CCC(=O)N(O)CCCCCN1,active: 4.47 µM
15,O=C(NCCC1=CCCCC1)c1coc(=O)c(Br)c1,"inconclusive: 25.1 µM [inhibitor, partial curve]"
16,Cc1cccc(/N=C/c2c(O)cc(C)oc2=O)n1,"inconclusive: 35.5 µM [inhibitor, partial curve]"
17,COC(=O)c1ccc(C#CC(NP(=O)(c2ccccc2)c2ccccc2)c2ccccc2)cc1 (stereo not given),"inconclusive: 31.6 µM [inhibitor, single point]"
18,Cc1ccc(/C(N)=N/OC(=O)CCc2ccccc2)cc1,"inconclusive: 35.5 µM [inhibitor, single point]"
19,COc1cccc(OC)c1OCCNC[C@@H]1COc2ccccc2O1,"inconclusive: 39.8 µM [inhibitor, single point]"
20,COc1ccc(NC(C)=O)cc1NC(=O)c1ccc2ccccc2c1,inactive
21,Cc1ccc(/C=N\NC(=O)Cn2c(C)nc3ccccc32)o1,inactive
22,CCn1c(-c2cc3c(C(F)(F)F)nn(C)c3s2)n[nH]c1=S,"inconclusive: 22.4 µM [inhibitor, partial curve]"
23,CC(C)OC(=O)c1c(NC(=O)c2cnn3c2NC(c2ccccc2)CC3C(F)F)sc2c1CCCC2 (stereo not given),"inconclusive: 28.2 µM [inhibitor, single point]"
24,CCC(C)/C(C)=N/NC(=O)c1cn(-c2ccccc2)nc1-c1ccccc1 (stereo not given),inactive

row,SMILES,Potency
1,CCC(=O)NC(/C=C/c1ccccc1)c1cc([N+](=O)[O-])c2cccnc2c1O (stereo not given),inactive
2,O=[N+]([O-])c1cc(/C=N/O)ccc1Sc1ccccc1,inactive
3,O=S(=O)(c1ccc2c(c1)C(=NO)c1cc(S(=O)(=O)N3CCCCC3)ccc1-2)N1CCCCC1,"inconclusive: 28.2 µM [inhibitor, partial curve]"
4,Cn1cccc1-c1nc2ccc(NC(=O)c3ccc([N+](=O)[O-])cc3)cc2[nH]1,inactive
5,COC(=O)c1c(C)[nH]c(C(=O)CC#N)c1C,"inconclusive: 14.1 µM [inhibitor, partial curve, poor fit]"
6,N#Cc1nc(N2CCCCC2)nc(N2CCOCC2)n1,"inconclusive: 39.8 µM [inhibitor, single point]"
7,O=c1c(-c2ccc(F)cc2)[n+]([O-])c2ccccc2n1OCc1ccccn1,"inconclusive: 2.51 µM [inhibitor, full curve]"
8,COc1ccc(-c2n(Cc3ccccc3)c3ccccc3[n+]2Cc2ccccc2)cc1,"inconclusive: 11.2 µM [inhibitor, partial curve]"
9,CCN(CC)CCNC(=O)c1ccc(NC(=O)c2cn(-c3ccccc3)nc2-c2cccs2)cc1,"inconclusive: 39.8 µM [inhibitor, single point]"
10,CCOc1ccccc1Nc1nnc(SCC(=O)N2CCCC2)s1,"inconclusive: 35.5 µM [inhibitor, single point]"
11,CN1CCc2nc(SCC(=O)Nc3cccc(F)c3)c(C#N)c(-c3cccs3)c2C1,"inconclusive: 28.2 µM [inhibitor, single point]"
12,CN(C)c1ccc2c(O)cc(=O)n(C)c2c1,"inconclusive: 35.5 µM [inhibitor, partial curve]"
13,O=C(/C=C/c1ccc(O)c(O)c1)OC(Cc1ccc(O)c(O)c1)C(=O)O (stereo not given),active: 25.1 µM and active: 3.98 µM
14,CCCCC/C=C\C/C=C\C/C=C\C/C=C\CCCCCC(=O)O,"inconclusive: 7.08 µM [inhibitor, single point]"
15,N#Cc1c(C(F)(F)F)cc(-c2cccs2)nc1SCC(=O)O,"inconclusive: 31.6 µM [inhibitor, single point]"
16,COc1ccc2c(c1)c(C(=O)O)c(C)n2-c1ccccc1,"inconclusive: 22.4 µM [inhibitor, partial curve]"
17,CCOC(=O)/C=C(\C)N1N=C(c2ccccc2)CC1c1ccccc1 (stereo not given),"inconclusive: 28.2 µM [inhibitor, single point]"
18,CCN1C(=O)N/C(=C/c2ccc(C)o2)C1=O,inactive
19,COc1cc(/C=C/C(=O)NCCN2CCOCC2)cc(OC)c1OC,"inconclusive: 28.2 µM [inhibitor, partial curve]"
20,CCc1ccc(C(=O)NC(=S)Nc2ccc(N3CCOCC3)cc2)cc1,inactive
21,Cc1ccccc1C(=O)N/C(=C/c1ccc(-c2cccnc2Cl)o1)C(=O)NCCCN1CCN(C)CC1,"inconclusive: 25.1 µM [inhibitor, partial curve]"
22,O=C(N/N=C/c1cc([N+](=O)[O-])ccc1O)C1C2CCCCC21 (stereo not given),"inconclusive: 35.5 µM [inhibitor, single point]"
